Experimental data from US10299477B2 (priority 2015, dated 2019).

Experiments:
Type in all cases: in vivo
Alternaia brassicicola = assay: Test Example C: Alternaria sooty spot on cabbage; details: 250 ppm spray, preventive; control value class
Excerpt: [Test Example C] Alternaria Sooty Spot on Cabbage
Seeds of a test plant (cabbage variety: Shikidori) were planted followed by cultivating until the cotyledons extended.

Botrytis cinerea = assay: Test Example B: Gray mold on tomato; details: 250 ppm spray, preventive; control value class
Excerpt: [Test Example B] Gray Mold on Tomato
Seeds of a test plant (tomato variety: Oogata Fukuju) were planted followed by cultivating until three to five first leaves (true leaves) appeared.

[1] = tested on: Blumeria graminis f sp. hordei; assay: Test Example D: Powdery mildew on barley; details: 250 ppm spray, preventive; control value class
Excerpt: [Test Example D] Powdery Mildew on Barley
After the sprayed dilutions were dried, conidia of Blumeria graminis f sp. hordei were inoculated to the plants by shaking off.

Plasmopara viticola = assay: Test Example G: Downy mildew on vine; details: 250 ppm spray (2.5 ml/pot), preventive; 7-10 days after inoculation; control value class
Excerpt: [Test Example G] Downy Mildew on Vine
Seeds of a test plant (grape variety: Neomuscat) were planted followed by cultivating until three to four first leaves appeared. […] After the sprayed dilutions were dried, a zoosporangia suspension (1-2×10^4 zoosporangia/ml) of Plasmopara viticola was inoculated to the plants by spraying.

Puccinia recondita = assay: Test Example E: Brown rust on wheat; details: 250 ppm spray, preventive; control value class
Excerpt: [Test Example E] Brown Rust on Wheat

SMILES | Test C control value (Alternaria sooty spot on cabbage) (Alternaia brassicicola) | Test B control value (gray mold on tomato) (Botrytis cinerea) | Test D control value (powdery mildew on barley) [1] | Test G control value (downy mildew on vine) (Plasmopara viticola) | Test E control value (brown rust on wheat) (Puccinia recondita)
COCOc1ccc(Cl)c(-c2ccc(=O)n(C)c2-c2c(F)cccc2F)c1 [Compound 239] | H (H shows more than 50% of control values) | H (H shows more than 50% of control values) | H (H shows more than 50% of control values) | H (H shows more than 50% of control values) | H (H shows more than 50% of control values)
COCCOc1ccc(Cl)c(-c2ccc(=O)n(C)c2-c2c(F)cccc2F)c1 [Compound 240] | H (H shows more than 50% of control values) | H (H shows more than 50% of control values) | H (H shows more than 50% of control values) | H (H shows more than 50% of control values) | H (H shows more than 50% of control values)
CCCOc1ccc(Cl)c(-c2ccc(=O)n(C)c2-c2c(F)cccc2F)c1 [Compound 241] | H (H shows more than 50% of control values) | H (H shows more than 50% of control values) | H (H shows more than 50% of control values) | H (H shows more than 50% of control values) | H (H shows more than 50% of control values)
C#CCOc1ccc(Cl)c(-c2ccc(=O)n(C)c2-c2c(F)cccc2F)c1 [Compound 243] | H (H shows more than 50% of control values) | H (H shows more than 50% of control values) | H (H shows more than 50% of control values) | H (H shows more than 50% of control values) | H (H shows more than 50% of control values)
C#CCOc1ccc(Cl)c(-c2ccc(=O)n(CC)c2-c2c(F)cccc2F)c1 [Compound 244] | H (H shows more than 50% of control values) | H (H shows more than 50% of control values) | H (H shows more than 50% of control values) | L (L shows 50% or less of control values) | H (H shows more than 50% of control values)
CCn1c(-c2c(F)cccc2F)c(-c2cc(OCOCC[Si](C)(C)C)ccc2Cl)ccc1=O [Compound 245] | H (H shows more than 50% of control values) | H (H shows more than 50% of control values) | H (H shows more than 50% of control values) | L (L shows 50% or less of control values) | L (L shows 50% or less of control values)
Cn1c(-c2c(F)cccc2F)c(-c2cc(OCOCC[Si](C)(C)C)ccc2Cl)ccc1=O [Compound 246] | H (H shows more than 50% of control values) | H (H shows more than 50% of control values) | H (H shows more than 50% of control values) | L (L shows 50% or less of control values) | H (H shows more than 50% of control values)
CCOc1cc(F)c(-c2c(-c3cc(OC)cc(OC)c3Cl)ccc(=O)n2C)c(F)c1 [Compound 247] | H (H shows more than 50% of control values) | H (H shows more than 50% of control values) | H (H shows more than 50% of control values) | H (H shows more than 50% of control values) | H (H shows more than 50% of control values)
COc1cc(OC)c(Cl)c(-c2ccc(=O)n(C)c2-c2c(F)cc(O)cc2F)c1 [Compound 249] | H (H shows more than 50% of control values) | H (H shows more than 50% of control values) | L (L shows 50% or less of control values) | L (L shows 50% or less of control values) | H (H shows more than 50% of control values)
CCn1c(-c2c(F)cccc2F)c(-c2cc(OCCC#N)ccc2Cl)ccc1=O [Compound 250] | H (H shows more than 50% of control values) | H (H shows more than 50% of control values) | L (L shows 50% or less of control values) | H (H shows more than 50% of control values) | H (H shows more than 50% of control values)
CCCCOc1ccc(Cl)c(-c2ccc(=O)n(CC)c2-c2c(F)cccc2F)c1 [Compound 252] | H (H shows more than 50% of control values) | L (L shows 50% or less of control values) | H (H shows more than 50% of control values) | L (L shows 50% or less of control values) | L (L shows 50% or less of control values)
CCCCOc1ccc(Cl)c(-c2ccc(=O)n(C)c2-c2c(F)cccc2F)c1 [Compound 253] | H (H shows more than 50% of control values) | H (H shows more than 50% of control values) | H (H shows more than 50% of control values) | H (H shows more than 50% of control values) | L (L shows 50% or less of control values)
CCCCCOc1ccc(Cl)c(-c2ccc(=O)n(CC)c2-c2c(F)cccc2F)c1 [Compound 254] | H (H shows more than 50% of control values) | L (L shows 50% or less of control values) | H (H shows more than 50% of control values) | H (H shows more than 50% of control values) | L (L shows 50% or less of control values)
CCCCCOc1ccc(Cl)c(-c2ccc(=O)n(C)c2-c2c(F)cccc2F)c1 [Compound 255] | H (H shows more than 50% of control values) | L (L shows 50% or less of control values) | L (L shows 50% or less of control values) | L (L shows 50% or less of control values) | L (L shows 50% or less of control values)
CC(C)Oc1ccc(Cl)c(-c2ccc(=O)n(C)c2-c2c(F)cccc2F)c1 [Compound 257] | H (H shows more than 50% of control values) | H (H shows more than 50% of control values) | H (H shows more than 50% of control values) | L (L shows 50% or less of control values) | H (H shows more than 50% of control values)
